115 sequences from the BET-seq Pho4 binding data (Le et al. 2018) can be followed below.

The list shows a part of the results. The energies were worked out here from pooled read counts, against the library average; single values are noisy.

The target in the assay is T1, Pho4 (S. cerevisiae) (UniProt P07270).
T1 sequence: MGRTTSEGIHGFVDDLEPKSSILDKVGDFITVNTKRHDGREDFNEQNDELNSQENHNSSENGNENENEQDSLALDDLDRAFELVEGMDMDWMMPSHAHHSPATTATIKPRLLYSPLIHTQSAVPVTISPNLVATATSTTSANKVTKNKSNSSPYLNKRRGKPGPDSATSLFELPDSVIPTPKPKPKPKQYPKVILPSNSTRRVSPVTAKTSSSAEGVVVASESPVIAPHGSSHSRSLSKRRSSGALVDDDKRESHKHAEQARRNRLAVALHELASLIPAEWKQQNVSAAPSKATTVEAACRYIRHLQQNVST
The assay can be described thus: relative binding free energy (BET-seq); higher = weaker binding. The note with it: reference: library average.
For AGTAGCACGTGAGATT, the “relative binding free energy” value stood at 0.24 kcal/mol. Regarding ATTTGCACGTGGTCAA, the “relative binding free energy” value was -0.15 kcal/mol. In the case of AGTTGCACGTGTGATG it was 0.17 kcal/mol.

Take GTAGTCACGTGGAGCG: the “relative binding free energy” value was found to be 0.12 kcal/mol.

With TGTTGCACGTGGTTGG, the “relative binding free energy” value is 0 kcal/mol. AAAGTCACGTGTCATG: the “relative binding free energy” value came to 0.21 kcal/mol. Take TATCGCACGTGTGGGC: the “relative binding free energy” value is -0.03 kcal/mol.

As for TCAATCACGTGGCGTG, the “relative binding free energy” value came to 0.14 kcal/mol. GTATGCACGTGTACGG: the “relative binding free energy” value worked out at 0.04 kcal/mol. Take GAATTCACGTGGTTGC: the “relative binding free energy” value came to 0.38 kcal/mol.

For TGTTACACGTGTGTAG, the “relative binding free energy” value amounted to 0.17 kcal/mol. Take GTGGACACGTGGTTGT: the “relative binding free energy” value is -0.01 kcal/mol. CGCGTCACGTGGTTGA: the “relative binding free energy” value was -0.01 kcal/mol. Consider AAGGTCACGTGGAGTG, for which the “relative binding free energy” value was 0.23 kcal/mol. TGTACCACGTGGTTGG: the “relative binding free energy” value is -0.28 kcal/mol.

Consider ATAGTCACGTGAGTTG, for which the “relative binding free energy” value stood at 0.31 kcal/mol. In the case of AGATGCACGTGGGACT, the “relative binding free energy” value was -0.13 kcal/mol. Take GGTGCCACGTGGATAG: the “relative binding free energy” value is -0.16 kcal/mol. Then GAGTACACGTGACGGG, with 0.48 kcal/mol; and CGATACACGTGTGGTA, with 0.14 kcal/mol. Regarding TGGTACACGTGTTTAG, the “relative binding free energy” value was found to be 0.15 kcal/mol. On to TGTACCACGTGTGTAA, for which the “relative binding free energy” value was -0.02 kcal/mol. GGTTGCACGTGTAGTC: the “relative binding free energy” value was determined as 0.06 kcal/mol. With GAATGCACGTGAGGTC, the “relative binding free energy” value stood at 0.23 kcal/mol. Consider TGGCTCACGTGGTGGC, for which the “relative binding free energy” value stood at 0.13 kcal/mol. As to TGTGACACGTGACTTG, the “relative binding free energy” value was found to be 0.13 kcal/mol. Turning to TGGGACACGTGGTTTT, the “relative binding free energy” value was 0.2 kcal/mol. Take TAATTCACGTGTCGGA: the “relative binding free energy” value came to 0.33 kcal/mol. In the case of AATCTCACGTGGGGAT, the “relative binding free energy” value was 0.2 kcal/mol.

For CTGTGCACGTGCTGGT, the “relative binding free energy” value is -0.18 kcal/mol. For the sequence GGCTGCACGTGTGGTC, the “relative binding free energy” value turned out to be 0.08 kcal/mol. On to CATTGCACGTGGAGAG, for which the “relative binding free energy” value is 0 kcal/mol. In the case of TTTCACACGTGTAGGT it was 0.1 kcal/mol. In the case of GATATCACGTGTTATT it was 0.15 kcal/mol; in that of TCAGTCACGTGGAGAT, 0.18 kcal/mol; in that of TTCAGCACGTGTTTGC, -0.02 kcal/mol.

As to GGTTACACGTGGTTGG, the “relative binding free energy” value was found to be 0.07 kcal/mol. TGTTTCACGTGTATCT: the “relative binding free energy” value came to 0.3 kcal/mol. Turning to TGTTACACGTGTTGAC, the “relative binding free energy” value was determined as 0.12 kcal/mol. In the case of GTTGACACGTGCGTGC, the “relative binding free energy” value is -0.09 kcal/mol. On to AGTGGCACGTGTGCAA, for which the “relative binding free energy” value is -0.2 kcal/mol. Take GCGTTCACGTGATTTT: the “relative binding free energy” value was determined as 0.27 kcal/mol. Regarding TAACGCACGTGGTAGG, the “relative binding free energy” value was -0.25 kcal/mol. Regarding TGAGCCACGTGGTTTG, the “relative binding free energy” value was -0.08 kcal/mol. With GTGGCCACGTGTGGGT, the “relative binding free energy” value turned out to be 0.01 kcal/mol. As for TATCGCACGTGATTGG, the “relative binding free energy” value came to 0.03 kcal/mol. Turning to AGCTTCACGTGTTTTG, the “relative binding free energy” value came to 0.24 kcal/mol.

For TTGTTCACGTGCGCAG, the “relative binding free energy” value is 0.18 kcal/mol.

Turning to GTGTGCACGTGGCTTG, the “relative binding free energy” value was -0.04 kcal/mol. With GAAATCACGTGTGGAG, the “relative binding free energy” value came to 0.18 kcal/mol. As to CTTTTCACGTGTGGAT, the “relative binding free energy” value was 0.28 kcal/mol. ATGGTCACGTGCAGGT: the “relative binding free energy” value was determined as 0.13 kcal/mol. Turning to TAGGACACGTGGGGAC, the “relative binding free energy” value was -0.12 kcal/mol. With GGGAGCACGTGACGGC, the “relative binding free energy” value came out at 0.3 kcal/mol.

For TGTATCACGTGGTGCT, the “relative binding free energy” value came out at 0.02 kcal/mol.

With TGATGCACGTGGCTTT, the “relative binding free energy” value was -0.17 kcal/mol. For the sequence TGTGGCACGTGGTACA, the “relative binding free energy” value was -0.25 kcal/mol. With TTCTCCACGTGGTGGT, the “relative binding free energy” value is -0.11 kcal/mol. Then TAGAGCACGTGATGAT, with 0.15 kcal/mol; and ATTTACACGTGGAGGA, with 0.07 kcal/mol. For TGGTACACGTGTGGAA, the “relative binding free energy” value amounted to 0.1 kcal/mol. TATCGCACGTGAGGGG: the “relative binding free energy” value turned out to be 0.14 kcal/mol.

With TTTTACACGTGTGGCA, the “relative binding free energy” value was 0.23 kcal/mol.

On to GGGTGCACGTGGCCGG, for which the “relative binding free energy” value was -0.11 kcal/mol.

For the sequence TATGACACGTGAATAT, the “relative binding free energy” value stood at 0.23 kcal/mol. Regarding CGGGACACGTGTGTAT, the “relative binding free energy” value was determined as 0.01 kcal/mol. For CTTTGCACGTGACTTG, the “relative binding free energy” value amounted to 0.16 kcal/mol.

Consider GTTAACACGTGACGGT, for which the “relative binding free energy” value was 0.11 kcal/mol. Then GTCTGCACGTGTGAGT, with 0.1 kcal/mol; and TTTGCCACGTGGGAGG, with -0.09 kcal/mol; and GCGTACACGTGTGATG, with 0.31 kcal/mol.

TTTTACACGTGTTGGA: the “relative binding free energy” value was found to be 0.06 kcal/mol. Then GGGTCCACGTGGTGGG, with -0.11 kcal/mol; and TGTGGCACGTGGGTCA, with -0.29 kcal/mol; and CTTTACACGTGGGTTC, with 0.11 kcal/mol. Then AGTGGCACGTGGCTTG, with -0.2 kcal/mol; and GGAGGCACGTGGCAGA, with -0.21 kcal/mol. As for CTATGCACGTGTGTAT, the “relative binding free energy” value was 0 kcal/mol. Turning to AGAATCACGTGCGGGG, the “relative binding free energy” value was 0.2 kcal/mol.

For the sequence TGCGTCACGTGAAGTA, the “relative binding free energy” value was found to be 0.19 kcal/mol. Then TTAAACACGTGGGTTC, with -0.07 kcal/mol; and GGGGTCACGTGTTTAT, with 0.22 kcal/mol. Regarding TCTTGCACGTGGGTTA, the “relative binding free energy” value is -0.04 kcal/mol.

Consider ATGGTCACGTGAGAGC, for which the “relative binding free energy” value turned out to be 0.21 kcal/mol.

For the sequence CGTGTCACGTGTGTCA, the “relative binding free energy” value was 0.2 kcal/mol. In the case of TGGGCCACGTGGATTG, the “relative binding free energy” value was -0.14 kcal/mol. As for GTTCACACGTGAGTGT, the “relative binding free energy” value amounted to 0.24 kcal/mol. Take ATGCGCACGTGCGTTT: the “relative binding free energy” value was -0.11 kcal/mol.

Turning to TGAGGCACGTGGTTAG, the “relative binding free energy” value is -0.24 kcal/mol.

As for TGTTGCACGTGTTCGC, the “relative binding free energy” value was -0.1 kcal/mol.

For TTTTTCACGTGGTCTA, the “relative binding free energy” value is 0.2 kcal/mol. As for GTATTCACGTGGCGTG, the “relative binding free energy” value was determined as 0.26 kcal/mol.

In the case of CTTATCACGTGGCGTG, the “relative binding free energy” value is 0.04 kcal/mol. As for ATTTGCACGTGGGAAC, the “relative binding free energy” value turned out to be 0.03 kcal/mol. For TGCATCACGTGGATTG, the “relative binding free energy” value was 0.09 kcal/mol.

TTAGGCACGTGATTAA: the “relative binding free energy” value was -0.15 kcal/mol. Consider CGTGGCACGTGGTTCT, for which the “relative binding free energy” value was -0.21 kcal/mol.

Turning to AAGATCACGTGTGTTG, the “relative binding free energy” value was found to be 0.1 kcal/mol. For the sequence TAGTTCACGTGGGGCA, the “relative binding free energy” value is 0.15 kcal/mol. Consider TTATTCACGTGCGGTT, for which the “relative binding free energy” value was 0.24 kcal/mol. On to CTATGCACGTGCAGTG, for which the “relative binding free energy” value was -0.01 kcal/mol. In the case of TTGGACACGTGGGGGA it was -0.15 kcal/mol.

Take TCTTTCACGTGCGTGT: the “relative binding free energy” value amounted to 0.12 kcal/mol. For the sequence TATATCACGTGTAGGG, the “relative binding free energy” value was found to be 0.2 kcal/mol. For the sequence CGTAGCACGTGATTTG, the “relative binding free energy” value is 0.08 kcal/mol. Turning to TTGCGCACGTGTCGTG, the “relative binding free energy” value is -0.01 kcal/mol. For CTGGACACGTGTTGAG, the “relative binding free energy” value came to 0.07 kcal/mol.

Regarding TTATTCACGTGGCGGA, the “relative binding free energy” value worked out at 0.18 kcal/mol. Then CGATTCACGTGATGTT, with 0.4 kcal/mol; and TGGTTCACGTGGGAAA, with 0.08 kcal/mol; and ATATTCACGTGATTGC, with 0.31 kcal/mol. For CCTTGCACGTGTAGGG, the “relative binding free energy” value turned out to be 0.06 kcal/mol. In the case of TGAGTCACGTGTCGGG it was 0.18 kcal/mol; in that of GATGGCACGTGGGCTG, -0.19 kcal/mol; in that of GTTTGCACGTGATAAG, 0.26 kcal/mol.
